PubChem BioAssay AID1508642 (National Center for Advancing Translational Sciences (NCATS), 2021)
Out of some 43,000 compounds screened, about 200 (0.47%) were called active. Not shown: some 12% with an inconclusive outcome. Calls follow the shape of the dose curve; as a rule, active = well fitted cell-killing curve with a large enough effect; inconclusive = small, poorly fitted or top-dose-only effect, or effect the other way; inactive = flat fitted curve, though single readings scatter. This is one part of the list.

test: Cell viability qHTS assay in S16 Pmp22-F2sN cells; settings: S16 Pmp22-F2sN Schwann cells (luciferase reporters placed in the Pmp22 gene) viability, CellTiter-Glo, 24 h; series mostly up to 57.5 µM; activity change, negative = cytotoxicity: at the top concentration; also: nearly all actives have a fitted effect of over 65% in size
In short: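 S16 Schwann cells carrying the Pmp22-F2sN reporter, seeded in 1536-well format, were exposed to library compounds for 24 h at 37C. Viability was read as CellTiter-Glo luminescence after 15 min at room temperature.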
% is scaled to controls: 0 for no effect and ±100 for the full control effect; potency is read from the fitted curve at half-maximal effect.

SMILES | activity change, negative = cytotoxicity | Potency
CCc1nn(Cc2cccc(F)c2)c(=O)c2cc3cc(C)ccc3n12 | inactive: -16.1% | –
Cc1ccc(-n2ncc(C(=O)N3CCN(c4ccccn4)CC3)c2C2CCN(C(=O)OC(C)(C)C)CC2)cc1 | inactive: 13.3% | –
CCC(C)NC(=O)Cn1c(=O)n(-c2ccc(Cl)c(Cl)c2)c(=O)c2c(C)c(C(=O)N(CC)CC)sc21 (stereo not given) | inactive: -2.76% | –
O=S(=O)(c1ccccc1)c1nc(-c2cccs2)oc1SCc1ccccc1Cl | inactive: 2.29% | –
CCOc1ccccc1NC(=O)CSc1nc2c([nH]c3ccccc32)c(=O)n1-c1ccccc1 | inactive: 5.9% | –
O=C(CC1NCCNC1=O)Nc1ccccc1F (stereo not given) | inactive: -1.23% | –
CCOC(=O)c1c(-c2ccc(C)cc2)csc1NC(=O)c1cc(=O)c2cc(Cl)ccc2o1 | inactive: 7.14% | –
Cc1ccc(Cl)cc1N1CCN(C(=O)c2cc3c(=O)n(C)c4ccccc4c3s2)CC1 | inactive: -2.29% | –
CCOC(=O)CC(=O)CSc1nc2ccccc2c(=O)n1-c1ccc(C(=O)NCCOC)cc1 | inactive: 0.193% | –
COC(=O)c1ccc(C(=O)OC)c(NC(=O)N2CC3CCCN3c3ccccc32)c1 (stereo not given) | inactive: -9.66% | –
CCN1CCN(c2nnc(-n3cccc3C(=O)Nc3cccc(OC)c3)s2)CC1 | inactive: 8.14% | –
O=C(Cn1ccn(-c2ccc(F)c(F)c2)c(=O)c1=O)c1ccc(F)cc1 | inactive: 0.85% | –
CC(C)c1nn2c(=O)cc(COC(=O)CNC(=O)c3ccccc3Cl)nc2s1 | inactive: -25.8% | –
CCn1c(=O)sc2cc(NC(=O)c3cccc(OC)c3)ccc21 | inactive: -12.7% | –
COc1ccc(C2CC(=O)c3c(C)nc(N4CCN(C=O)CC4)nc3C2)c(OC)c1 (stereo not given) | inactive: 22% | –
Cc1nnc(NC(=O)CSc2nccn2-c2ccc(Cl)cc2)s1 | inactive: -7.71% | –
CCOc1ccc(Cn2c(CNS(=O)(=O)c3c(C)cc(C)cc3C)nc3cccnc32)cc1 | inactive: 2.81% | –
O=C(Cn1cc(C(=O)C2CC2)c2ccccc21)Nc1ccc(Br)cc1 | inactive: 1.15% | –
COc1ccccc1N1CCN(c2ccc(-c3nc(-c4ccccc4)no3)cc2[N+](=O)[O-])CC1 | inactive: 6.88% | –
CC(=O)c1ccc(NC(=O)CCCc2nc(-c3cccc(C)c3)no2)cc1 | inactive: 8.4% | –

SMILES | activity change, negative = cytotoxicity | Potency
Cc1ccc(C)c(Cn2c(=O)n(CCCCCC(=O)NCc3ccc4c(c3)OCO4)c(=O)c3sccc32)c1 | inactive: -2.83% | –
CCOC(=O)c1ccc(CN(Cc2ccccc2C)S(=O)(=O)c2ccc(F)c(C(=O)Nc3cccc(OC)c3)c2)cc1 | inactive: -1.22% | –
Cc1c(C)n(Cc2ccc(F)cc2)c2ccc(C(=O)Nc3ccc(Cl)cc3)cc12 | inactive: -9.82% | –
O=C(CC1C(=O)N(c2ccccc2)C(=O)N1Cc1ccc2c(c1)OCO2)Nc1ccccc1 (stereo not given) | inactive: 3.68% | –
O=C1CC(c2nnc(Cc3ccccc3Cl)o2)CN1c1ccccc1 (stereo not given) | inactive: -1.56% | –
Cc1ccc(-c2cc3c(n2-c2ccccc2F)CC(C)(C)CC3=O)cc1 | inactive: -3.75% | –
COc1ccc(C)cc1NC(=O)N1CCN(c2cc(-c3noc(C)n3)ccc2C)CC1 | inactive: -7.56% | –
O=C(CN1C(=O)CSc2ccc(S(=O)(=O)N3CCCC3)cc21)NCc1ccc(Cl)cc1 | inactive: 10.5% | –
COc1ccc(NC(=O)CN2C(=O)COc3ccc(S(=O)(=O)N4CCCCC4)cc32)cc1Cl | inactive: 8.47% | –
COc1ccc(NC(=O)c2oc3ccccc3c2NC(=O)Cc2cccs2)cc1 | inactive: -3.06% | –
Cc1ccc(NC(=O)c2sc3nc(-c4ccc(F)cc4)ccc3c2N)cc1F | inactive: 2.74% | –
CN1CCc2nc3sc(C(=O)Nc4cccc(C#N)c4)c(N)c3cc2C1 | inactive: 21.9% | –
Cc1cc(C)cc(Nc2nnc(-n3nc(C)cc3C)c3ccccc23)c1 | inactive: -24.1% | –
CC1=C(c2ccc(C)c(C)c2)S(=O)(=O)N=C1N1CCC(C(=O)Nc2cccc(F)c2)CC1 | inactive: 2.36% | –
COc1cccc(NC(=O)CSc2nnc(-c3cccs3)o2)c1 | inactive: 8.76% | –
COc1ccccc1NC(=O)Cn1c(=O)n(-c2cccc(Cl)c2)c(=O)c2c1c1cc(C)ccc1n2C | inactive: 11.8% | –
CCc1ccccc1NC(=O)CSc1ncc(S(=O)(=O)c2ccccc2)c(=O)[nH]1 | inactive: 8.45% | –
Cc1cccc(OCC(=O)Nc2ccc(Cl)c(-c3nc4ccccc4[nH]3)c2)c1 | inactive: 0.498% | –
COc1cccc(C(=O)Nc2c(C(=O)c3ccc(F)cc3)oc3ccccc23)c1 | inactive: 4.45% | –
COc1cc(C2c3c(oc4ccc(C)cc4c3=O)C(=O)N2Cc2ccccc2)ccc1O (stereo not given) | inactive: 6.2% | –

SMILES | activity change, negative = cytotoxicity | Potency
Cc1oc(-c2ccc(Cl)cc2)nc1CSCC(=O)NCc1ccccc1Cl | inactive: -13.4% | –
CC(CNC(=O)Cn1c(-c2cccs2)cc2ccccc21)c1ccccc1 (stereo not given) | inactive: -3.63% | –
CCC(=O)N1CCc2cc(Br)cc(S(=O)(=O)N3CCCC(C(=O)NCc4ccc(OC)cc4)C3)c21 (stereo not given) | inactive: 20.6% | –
COC(=O)Cc1c(C)c2ccc3c(c2oc1=O)CN(Cc1ccccc1OC)CO3 | inactive: 9.13% | –
Cc1ccc2c(CC(=O)N(Cc3ccc(Cl)cc3)Cc3ccco3)coc2c1 | inactive: -0.88% | –
Cc1ccccc1Nc1cc(C(=O)NCCc2ccc(Cl)cc2)c2ccccc2n1 | inactive: -26.5% | –
CCCOc1ccc(C2c3c(-c4ccccc4O)n[nH]c3C(=O)N2CCCOCC)cc1OCC (stereo not given) | inactive: -22.8% | –
O=C(Nc1cccc(F)c1)c1cccc2c1C(=O)N(C1CCCCC1)C2 | inactive: -18.9% | –
O=C(Nc1ccc(F)cc1)C1CCCN(c2ncnc3c2nc2n3CCCCC2)C1 (stereo not given) | inactive: 3.26% | –
Cc1ccc(N(C)C(=O)Cn2cc(S(=O)(=O)N3CCCC3)c(S(=O)(=O)N3CCCC3)c2)cc1 | inactive: 2.32% | –
COc1ccc(CNC(=O)c2cc3c(=O)n4cccc(C)c4nc3s2)cc1 | inactive: 2.11% | –
Cc1c(C(=O)Nc2ccc(F)c(F)c2)oc2ccc(S(=O)(=O)N(C)C3CCCCC3)cc12 | inactive: -3.9% | –
CCOC(=O)c1ccc(NC(=O)C(C)N(c2ccc(OCC)cc2)S(C)(=O)=O)cc1 (stereo not given) | inactive: 1.14% | –
CCOC(=O)c1[nH]c(C)c(CCC(=O)NC(C)c2ccccc2)c1C (stereo not given) | inactive: -9.15% | –
O=C(Nc1cc2ccc(O)cc2oc1=O)c1ccc(F)cc1 | inactive: -5.69% | –
CCN(CC)CCn1c2c(c(SCC(=O)Nc3cccc(C(F)(F)F)c3)nc1=O)CCC2 | inactive: -15.8% | –
Cc1cccc(CNC(=O)Cc2ccc(NC(=O)N3CCCCc4ccccc43)cc2)c1 | inactive: -2.23% | –
CCOc1ccc(-c2cn3c(n2)sc2cc(C(=O)NCCCN(CC)CC)ccc23)cc1 | – | active: 10 µM
COc1ccc(CCNC(=O)CCCCn2c(=O)c3ccccc3n(Cc3ccc(Cl)cc3)c2=O)cc1OC | inactive: 10.5% | –
COc1cccc(CNC(=O)c2oc3ccc4c(c3c2C)C(=O)CC(C)(C)O4)c1OC | inactive: -27.6% | –
